The text below walks through data of publication PMC6801735, “Identification of New DR5 Agonistic Nanobodies and Generation of Multivalent Nanobody Constructs for Cancer Treatment” (International Journal of Molecular Sciences, 2019).

For the experiment, the target named is T1, TNF-related apoptosis-inducing ligand (TRAIL), soluble recombinant (human, UniProt P50591 114-281).
T1 construct: TRAIL (Apo2L), human, soluble extracellular part, amino acids 114-281 of the 281-amino acid protein; It was stabilised with 10% glycerol, 0.01% mannitol, 8% trehalose, 20 uM zinc chloride and 1 mM dithiotreitol; also called Apo2L/TRAIL; recombinant trimeric TRAIL; source: E. coli SHuffle T7 Express (pET-28a/trail), cytoplasmic, purified (Ni-NTA IMAC, SEC in PBS)
The experiment in a line: SPR; DR5 (monomer and dimer mixture) immobilised on a CM5 chip (~150 RU), Biacore T200; analyte in 150 mM NaCl, 0.005% Tween-20, 3.4 mM EDTA, 20 mM HEPES pH 7.4; 30 uL/min; 1:1 Langmuir model; apparent affinity. As to conditions: both partners purified.

B1: death receptor 5 (DR5) ectodomain (domain or fragment)
chain: not shown
notes: death receptor 5 (DR5, TRAIL-R2), human, ectodomain, […]; The preparation was a mixture of monomer and a disulfide-linked dimer (band around 40,000 under non-reducing conditions); also called TRAIL-R2; KILLER receptor; source: E. coli SHuffle T7 Express (pET-28a/dr5), cytoplasmic, purified (Ni-NTA IMAC, SEC in 10 mM acetate pH 5.0)
As for B1, the Kd came out at 0.453 nM, the off-rate constant (koff) was 0.000313 s⁻¹ and the on-rate constant (kon) was 691000 M⁻¹ s⁻¹.
